From paper PMC4336329 (PLoS ONE, 2015)
The whole screen tested about 310,000 compounds, of which about 2,200 (0.71%) showed an effect of 50% or more. Effects have a minus sign here. Some of the results follow. Where a SMILES comes first, the peptide text is derived from it. [ ]: non-standard residue; d: D form. The star is where a group is joined. ξ: configuration not given here. ξY = NC(Cc1ccc(O)cc1)C(=O)O; Cbz = O=C(OCc1ccccc1)*; OtBu = CC(C)(C)O*; tBu = CC(C)(C)*

What follows are compounds tested against human ether-à-go-go-related gene (hERG) potassium channel (human, UniProt Q12809) (assay: primary screen, population patch clamp on CHO cells stably expressing hERG).
Sequence of human ether-à-go-go-related gene (hERG) potassium channel (Q12809 whole entry, looked up): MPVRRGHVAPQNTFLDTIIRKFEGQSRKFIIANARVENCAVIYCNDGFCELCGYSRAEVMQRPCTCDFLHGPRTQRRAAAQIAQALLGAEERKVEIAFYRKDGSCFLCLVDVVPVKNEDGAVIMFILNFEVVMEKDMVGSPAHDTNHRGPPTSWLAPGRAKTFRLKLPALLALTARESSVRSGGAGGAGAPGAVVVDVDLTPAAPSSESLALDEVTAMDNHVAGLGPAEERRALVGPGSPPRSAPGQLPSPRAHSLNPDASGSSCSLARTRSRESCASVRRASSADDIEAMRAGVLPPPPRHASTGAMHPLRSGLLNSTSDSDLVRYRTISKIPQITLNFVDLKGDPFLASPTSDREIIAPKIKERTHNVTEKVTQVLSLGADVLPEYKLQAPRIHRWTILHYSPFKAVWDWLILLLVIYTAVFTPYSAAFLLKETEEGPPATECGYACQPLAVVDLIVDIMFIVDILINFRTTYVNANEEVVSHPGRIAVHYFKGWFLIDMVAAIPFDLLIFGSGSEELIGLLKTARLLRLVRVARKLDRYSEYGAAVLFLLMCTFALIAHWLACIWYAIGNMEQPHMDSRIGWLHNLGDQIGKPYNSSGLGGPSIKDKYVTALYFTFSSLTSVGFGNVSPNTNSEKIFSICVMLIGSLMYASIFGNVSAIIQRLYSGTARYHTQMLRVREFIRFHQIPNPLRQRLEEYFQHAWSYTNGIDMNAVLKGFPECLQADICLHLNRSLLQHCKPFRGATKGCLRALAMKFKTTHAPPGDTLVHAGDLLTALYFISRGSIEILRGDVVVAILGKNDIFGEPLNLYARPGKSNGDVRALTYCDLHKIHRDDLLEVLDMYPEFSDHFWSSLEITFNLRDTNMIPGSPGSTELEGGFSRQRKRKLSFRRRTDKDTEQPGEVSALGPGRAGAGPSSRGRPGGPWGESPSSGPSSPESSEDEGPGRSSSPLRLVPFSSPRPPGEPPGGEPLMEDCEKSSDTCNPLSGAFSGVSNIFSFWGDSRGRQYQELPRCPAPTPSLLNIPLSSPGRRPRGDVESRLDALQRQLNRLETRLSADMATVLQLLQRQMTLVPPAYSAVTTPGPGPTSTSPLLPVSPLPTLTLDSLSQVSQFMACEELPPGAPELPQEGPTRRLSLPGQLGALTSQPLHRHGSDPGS
With `CC1Cc2nc(SCC(=O)N3CCN(c4ccccc4)CC3)n(CCc3ccccc3)c(=O)c2S1` (stereo not shown) the “hERG current change (%, negative = inhibition) at 1uM” value was 2.07%.
For `Cc1ccc(Cl)cc1NC(C#N)c1ccccc1` (stereo not shown), the “hERG current change (%, negative = inhibition) at 1uM” value was 9.71%.
With `O=C(NCCN1CCN(C(=O)c2cccc(Br)c2)CC1)C(=O)Nc1ccc(Br)cc1` the “hERG current change (%, negative = inhibition) at 1uM” value was -3.77%.
With `Cc1ccc(O)c(C(=O)CC(=O)c2ccc(C(C)(C)C)cc2)c1` the “hERG current change (%, negative = inhibition) at 1uM” value was 12.6%.
With `CN(C)CCOc1ccc2c(c1)Sc1ccccc1CC2=O.Cl` the “hERG current change (%, negative = inhibition) at 1uM” value was -18.3%.
`CC1CCN(C(c2cc3cc4c(cc3[nH]c2=O)OCO4)c2nnnn2CC2CCCO2)CC1` (stereo not shown) was tested, and the “hERG current change (%, negative = inhibition) at 1uM” value was -3.76%.
With `CCSc1nnc(NC(=O)C2CC=CCC2C(=O)O)s1` (stereo not shown) the “hERG current change (%, negative = inhibition) at 1uM” value was 6.79%.
For `CC1(C)CC(=O)C2=C(C1)OC(N)=C(C#N)C2c1cn(-c2ccccc2)nc1-c1ccc(F)cc1` (stereo not shown), the “hERG current change (%, negative = inhibition) at 1uM” value was -4.2%.
With `CCn1c(SCC(=O)N2CCN(c3cccc(Cl)c3)CC2)nc2ccccc2c1=O` the “hERG current change (%, negative = inhibition) at 1uM” value was 3.76%.
For `CN(CC(=O)O/N=C(\N)c1ccccn1)S(=O)(=O)c1cc(Cl)ccc1Cl`, the “hERG current change (%, negative = inhibition) at 1uM” value was 5.03%.
`CC1(C)[C@H]2CC[C@]1(C)[C@@H](OC(=O)C[N+]1(C)CCOCC1)C2.[I-]` was tested, and the “hERG current change (%, negative = inhibition) at 1uM” value was 15.5%.
In the case of `COc1ccc(C(=O)OCCc2cc3ccccc3c(=O)o2)cc1`, the “hERG current change (%, negative = inhibition) at 1uM” value was 11.4%.
In the case of `CC(C)(C)c1ccc(/C=C/C(=O)Nc2ncccn2)cc1`, the “hERG current change (%, negative = inhibition) at 1uM” value was 17.1%.
In the case of `Cc1cc(OCC(=O)OCC(=O)NCC2CCCO2)ccc1Cl` (stereo not shown), the “hERG current change (%, negative = inhibition) at 1uM” value was 11.4%.
In the case of `O=C(CNS(=O)(=O)c1ccc(Br)s1)Nc1ccc2c(c1)OCCO2`, the “hERG current change (%, negative = inhibition) at 1uM” value was 4.22%.
With `COc1ccc(OC)c(C2CC(=O)N3CN(c4ccccc4F)CSC3=C2C#N)c1` (stereo not shown) the “hERG current change (%, negative = inhibition) at 1uM” value was 12.9%.
`COc1ccc(CCC(=O)Nc2ccc(Cl)c(S(=O)(=O)N3CCCC3)c2)cc1` was tested, and the “hERG current change (%, negative = inhibition) at 1uM” value was -3.3%.
With `COc1ccc(CC(=O)N2CCN=C2SC)cc1OC` the “hERG current change (%, negative = inhibition) at 1uM” value was 4.01%.
In the case of `Cc1cc(NC(=O)CCCN2C(=O)c3cccc4cccc(c34)C2=O)no1`, the “hERG current change (%, negative = inhibition) at 1uM” value was 4.02%.
For `CCN(CC)S(=O)(=O)c1ccc(NC(=O)C2CCCO2)cc1` (stereo not shown), the “hERG current change (%, negative = inhibition) at 1uM” value was 16.3%.
For `COc1cccc(OC)c1-c1nn2c(-c3ccccc3Cl)nnc2s1`, the “hERG current change (%, negative = inhibition) at 1uM” value was 5.33%.
In the case of `COc1ccc(Cl)cc1NC(=O)C(C)N(C)Cc1ccc(C(F)(F)F)cc1` (stereo not shown), the “hERG current change (%, negative = inhibition) at 1uM” value was 12.2%.
With `COCCNC(=O)c1ccc(N2CC3CC(C2)c2cccc(=O)n2C3)c(NC(=O)c2ccc(Br)o2)c1` (stereo not shown) the “hERG current change (%, negative = inhibition) at 1uM” value was 10.5%.
With `Cc1cccc(N2C(=O)N3[C@H](c4ccc(F)cc4)[C@@H]4C(=O)N(C5CCCCC5)C(=O)[C@@H]4[C@]3(Cc3ccccc3)C2=O)c1` the “hERG current change (%, negative = inhibition) at 1uM” value was 11.6%.
In the case of `CCOC(=O)Cc1csc(NC(=O)CSc2ncnc3c2cnn3-c2ccc(OC)cc2)n1`, the “hERG current change (%, negative = inhibition) at 1uM” value was 4.2%.
For `Cc1cc(C)n(CCSCC(=O)O)n1`, the “hERG current change (%, negative = inhibition) at 1uM” value was 20.6%.
`COc1ccccc1Nc1nnc(SCc2cc(=O)n3cc(C)ccc3n2)s1` was tested, and the “hERG current change (%, negative = inhibition) at 1uM” value was 15.1%.
`Cc1occc1-c1nnc(SCc2nc3ccccc3c(=O)n2CC#N)n1C` was tested, and the “hERG current change (%, negative = inhibition) at 1uM” value was -19.7%.
For `O=c1oc(-c2ccco2)nc2ccccc12`, the “hERG current change (%, negative = inhibition) at 1uM” value was 10.1%.
With `O=C(c1nc2ccc(Cl)cn2c1CN1CCCC1)N1CCc2ccccc2C1` the “hERG current change (%, negative = inhibition) at 1uM” value was 7.74%.
For `CN(C#N)c1nc(Cl)nc(Nc2cccc(Cl)c2)n1`, the “hERG current change (%, negative = inhibition) at 1uM” value was -7.06%.
With `CCc1cccc(CC)c1C(OC(C)=O)c1cccnc1` (stereo not shown) the “hERG current change (%, negative = inhibition) at 1uM” value was 13.7%.
For `O=C(CN(CC1CCCO1)C(=O)CNS(=O)(=O)c1ccccc1)NCc1ccco1` (stereo not shown), the “hERG current change (%, negative = inhibition) at 1uM” value was 17.5%.
With `COc1ccc(NC(=O)CN2CCN(C3c4ccccc4-c4ccccc43)CC2)c(OC)c1` the “hERG current change (%, negative = inhibition) at 1uM” value was -4.97%.
In the case of `COc1cc(S(=O)(=O)Nc2cccc(C(=O)O)c2)c(OC)cc1Cl`, the “hERG current change (%, negative = inhibition) at 1uM” value was 8.43%.
With `COc1ccc(OC)c(NC(=S)NCc2ccccc2OC)c1` the “hERG current change (%, negative = inhibition) at 1uM” value was 10.7%.
With `Cn1c(Cc2nc(-c3cnccn3)no2)nnc1SCC(=O)Nc1ccccc1` the “hERG current change (%, negative = inhibition) at 1uM” value was 3.09%.
In the case of `CSc1ccccc1NC(=O)CN(C)C(=O)c1ccc(NC(=O)c2cccs2)cc1`, the “hERG current change (%, negative = inhibition) at 1uM” value was 14.6%.
In the case of `Nc1ccc(Cl)c[n+]1Cc1cccc2cccnc12.[Br-]`, the “hERG current change (%, negative = inhibition) at 1uM” value was -3.72%.
With `CCOC(=O)C1CCN(C(=O)c2cc3cc(F)ccc3[nH]2)CC1` the “hERG current change (%, negative = inhibition) at 1uM” value was -6.63%.
With `CC(C)(C)OC(=O)C(Cc1ccc(OC(C)(C)C)cc1)NC(=O)CNC(=O)CNC(=O)OCc1ccccc1` (stereo not drawn) (Cbz-Gly-Gly-[ξY](tBu)-OtBu) the “hERG current change (%, negative = inhibition) at 1uM” value was 6.26%.
With `O=C(NC(=S)Nc1cc(Cl)ccc1N1CCOCC1)c1ccccc1[N+](=O)[O-]` the “hERG current change (%, negative = inhibition) at 1uM” value was 11.6%.
In the case of `COc1ccc(C(=O)N/N=C\c2ccoc2)cc1`, the “hERG current change (%, negative = inhibition) at 1uM” value was 13%.
In the case of `CCOC(=O)c1cn2nc(Oc3cccc(F)c3)ccc2n1`, the “hERG current change (%, negative = inhibition) at 1uM” value was 10.4%.
With `O=C(Oc1cccnc1)c1cc(S(=O)(=O)N2CCOCC2)ccc1Cl` the “hERG current change (%, negative = inhibition) at 1uM” value was 7.31%.
`Cc1ccc(CN(C)C(=O)COC(=O)CSc2ccc(C(N)=O)cc2[N+](=O)[O-])cc1` was tested, and the “hERG current change (%, negative = inhibition) at 1uM” value was 16%.
In the case of `COc1ccc(CC(=O)OCC(=O)Nc2ncc(Cl)cc2Cl)cc1OC`, the “hERG current change (%, negative = inhibition) at 1uM” value was 11.8%.
In the case of `CC1CCc2c(c3ccccc3[nH]c2=O)O1` (stereo not shown), the “hERG current change (%, negative = inhibition) at 1uM” value was 6.57%.
`COc1ccc(NC(=O)c2nc3nc(C)cc(C(F)F)n3n2)cc1OC` was tested, and the “hERG current change (%, negative = inhibition) at 1uM” value was 9.25%.
`CCOc1cc(C)c(S(=O)(=O)N2CCCC2)cc1C` was tested, and the “hERG current change (%, negative = inhibition) at 1uM” value was 14.8%.
In the case of `Br.Cc1ccccc1Cn1c(=N)n(CC(=O)c2ccco2)c2ccccc21`, the “hERG current change (%, negative = inhibition) at 1uM” value was -28.9%.
With `COc1ccc(C(C(=O)NC2CCCCC2)N(C(=O)CCl)c2ccc(C)cc2)cc1` (stereo not shown) the “hERG current change (%, negative = inhibition) at 1uM” value was 5.58%.
In the case of `Oc1c(Br)cccc1/C=N/Nc1c(F)c(F)c(F)c(F)c1F`, the “hERG current change (%, negative = inhibition) at 1uM” value was 3.82%.
In the case of `CCCCC(=O)Nc1cc(-c2nc3ncccc3o2)ccc1C`, the “hERG current change (%, negative = inhibition) at 1uM” value was 8.43%.
With `COc1cccc(-c2nnc3sc(-c4ccco4)nn23)c1` the “hERG current change (%, negative = inhibition) at 1uM” value was 20.1%.
